Source: the supplement of paper PMC11417369
± gives the standard deviation of the averaged measurements. This is one part of the list.

Tested on: PfAP2-EXP AP2 domain (GST-tagged)
Assay: gcPBM binding intensity (ln(normalized median fluorescence intensity)); higher = stronger DNA binding
Procedure, shortened: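 An Agilent 4 × 180k array carrying primer-extended double-stranded 36-bp intergenic genomic probes and negative controls received GST-tagged P. falciparum DNA-binding domains expressed in E. coli, about 25 μg on average, for 1 h. The binding buffer contained 1× PBS, 1% milk, 0.2 mg/ml BSA, 0.5% salmon testes DNA and 0.03% Triton X-100. Binding intensity is the top Masliner-normalised natural-log median intensity across replicate spots of either probe orientation, read after Alexa488 anti-GST antibody staining and a 488 nm scan.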

Row | Sequence | gcPBM binding intensity (ln)
1 | TATATTTGTGCGTGTACACATTTGAAAAAATATATA [CACACA_site5079] | 8.84 ± 0.19
2 | CATATAATAAATAATTGTACTTGATATAATATTATG [XGTACX_site3562] | 8.27 ± 0.29
3 | GACATATATACCAAACGTACATATGTGCAAGCATAA [XGTACX_site3089] | 8.57 ± 0.28
4 | TTGGCTATAGCCAATTGTACTTTTTCTCTTTGGCTT [XGTACX_site1119] | 8.56 ± 0.39
5 | TCTTGATTAACTTAAAAAAAAAAAAAAAAAAAAAAA [CACACA_negctrl_site458] | 7.89 ± 0.35
6 | GCTTAATACAGAATAACACACAAAATAAATAAATAA [CACACA_site4041] | 8.62 ± 0.45
7 | TTTTTTTTTTTTTTTGCACACTTAAATTTGGTGGCT [CACACA_site5319] | 8.4 ± 0.48
8 | AATAATAATAAAAAGGTGCTGAAATATTTTTATTAT [GTGCAC_site9763] | 8.62 ± 0.16
9 | TATATAATTATTTTTTGTACTCATAATAATATGAAA [XGTACX_site289] | 8.64 ± 0.28
10 | ATAAATTATAATAACTGTACAAAAATAATATATTCA [XGTACX_site1856] | 8.61 ± 0.44
11 | ATATGTACAAAATAAGCACACACAAAAAAAAAAAAA [CACACA_site8984] | 8.31 ± 0.57
12 | TTTTTTTTTTTTTTTTGTACATAAATTTTTATTAGA [XGTACX_site6409] | 8.17 ± 0.35
13 | AAAAAAAAAAAAAATATATATATATATATATATATA [CACACA_negctrl_site540] | 10.2 ± 0.2
14 | TATGAGAAAAAAAGTACATGCACAAAATGTATATGT [TGCATGCA_site789] | 9.03 ± 0.25
15 | CAACATTGTTCCTATTGTACATGAACTGTTCATACG [XGTACX_site4070] | 8.81 ± 0.44
16 | ATTATATAAACCAAATGTACAAAAAGGTCGTAGTGG [XGTACX_site1298] | 9.03 ± 0.38
17 | ATTATTAAGGTTTATTCAAAAAAGACGTTTTTAAAT [CACACA_negctrl_site1059] | 8.03 ± 0.38
18 | AGACACGTATACGATGCACACGTATGCTTTATATAT [CACACA_site9363] | 9.02 ± 0.32
19 | TATTTTTATTTTTAAACCATATATATATATATATAT [CACACA_negctrl_site1560] | 10.3 ± 0.23

Row | Sequence | gcPBM binding intensity (ln)
20 | ATAAAAATATTTATTACACACATAAGCAAAAAAAAA [CACACA_site3484] | 8.64 ± 0.44
21 | TATAATGATGATGATAGTACGTATGAGTAAGAAAAA [XGTACX_site31] | 9.01 ± 0.33
22 | TATAGTTTCATTCTTTGTACATATATATTATTATTA [XGTACX_site8527] | 8.81 ± 0.4
23 | AATGTGCAAACAAACTGTACTTTTTTTTTTTTTTTT [XGTACX_site928] | 8.61 ± 0.12
24 | AGATTTATTCATTCATGTACTTATTTATTTTATTTT [XGTACX_site6702] | 8.18 ± 0.32
25 | AATAATAATGCTTTAACTTTGTTGTTATTTAGAATA [CACACA_negctrl_site1144] | 8.16 ± 0.41
26 | TATAAATAAAAGTGTACACACATTAAAATCAAACGT [CACACA_site5316] | 8.93 ± 0.085
27 | TTTATTTATTTATGGACACACATACAAATCTTCCAG [CACACA_site4676] | 8.53 ± 0.38
28 | TCCATGCATTGACACACACACAAAAAAAAATTCTTT [CACACA_site7847] | 8.55 ± 0.23
29 | TTTGTATTACGTTTGTGTACATATACAATGTGTTTT [XGTACX_site7708] | 8.57 ± 0.31
30 | CATACATATATACATACACACACATATAACCAATGT [CACACA_site8679] | 8.68 ± 0.38
31 | TTTTCTTAATATTTCGTTTTACATAAACCTTTTAAA [CACACA_negctrl_site660] | 8.57 ± 0.46
32 | AATATAATATTATATAGTACATATTTCTTTTATTTT [XGTACX_site22] | 8.38 ± 0.36
33 | TTTTACATCATATATAGTACATATATTATACATATA [XGTACX_site8590] | 8.54 ± 0.39
34 | TATATATATATAAGTAGTACAATAATATATTATTTT [XGTACX_site6450] | 9.74 ± 0.27
35 | ATATATTTTCATTTTACACACAAATAAAGATAATTT [CACACA_site2996] | 8.41 ± 0.33
36 | AAAATAAATAAAAAAAGTACATATATAATTTATAAA [XGTACX_site2411] | 8.55 ± 0.33
37 | TGTTGTGATATATTAAAATCGTCCCTTATAATTTTA [GTGCAC_negctrl_site595] | 8.52 ± 0.52
38 | TAATATTATATTTATAGTACATATAATATATATATA [XGTACX_site2964] | 9.215 ± 0.049

Row | Sequence | gcPBM binding intensity (ln)
39 | AAAATACACGCATACACACACACACCGACACATATA [CACACA_site4523] | 8.76 ± 0.45
40 | TCTTGATACAAACATTTAAATAAATAAATAAAAAAA [GTGCAC_negctrl_site41] | 8.35 ± 0.34
41 | AAACACACACACAAATGTACATATATATATATATTT [XGTACX_site5090] | 8.61 ± 0.41
42 | GAACACTAATAATGTTGTACACGTAATTATATATTT [XGTACX_site777] | 8.56 ± 0.38
43 | TATAATATATGTATATGTACTTATGTTGAGAAACAT [XGTACX_site2117] | 8.3 ± 0.25
44 | GTTATATAAACATATGCATGTGAAGTGTTTATTAAT [TGCATGCA_site183] | 8.87 ± 0.45
45 | TACCTAATATGTTATACACACATTATGAGTACATAT [CACACA_site2466] | 8.51 ± 0.4
46 | GAATAATATATATGTTCACACATGGTCTTTATTATA [CACACA_site5457] | 8.63 ± 0.31
47 | AAATGTACAGGACGCACACACATATTTATATTTATA [CACACA_site7689] | 8.55 ± 0.33
48 | GTTGTATACAATAATGTGCACATATTAATTTGAACT | 9.01 ± 0.2
49 | TATATATATATAATTGCACACATCAAGTTTGATGTT [CACACA_site1288] | 9.93 ± 0.28
50 | TTTTTTTTTCCTTTTTTTTAAATATTAAAAATGGGA [TGCATGCA_negctrl_site494] | 8.07 ± 0.38
51 | TAAATATATATATATAGTACAATATAATTATGATAT [XGTACX_site258] | 8.61 ± 0.38
52 | TAAGTTTTGTTTTTTTGTACTCATTCATACTATCAT [XGTACX_site3638] | 8.87 ± 0.49
53 | CTTATTTACTATTTTTCACACATTACAGATAAACAA [CACACA_site6095] | 8.65 ± 0.39
54 | TCATTGAAAAAAATCTGTACTGACTATATAGTTGCA [XGTACX_site1566] | 8.44 ± 0.33
55 | TCAGATATATAGAATACACACATGGATATAAGAAAT [CACACA_site7831] | 8.85 ± 0.49
56 | ATATTTTGTAACTATACACACATATATATATTATAA [CACACA_site3062] | 8.44 ± 0.35
